The campaign covered roughly 310,000 compounds. About 2,200 (0.71%) showed an effect of 50% or more. Effects have a minus sign here. Some of the results follow.

Chain of human ether-à-go-go-related gene (hERG) potassium channel (Q12809 whole entry, looked up): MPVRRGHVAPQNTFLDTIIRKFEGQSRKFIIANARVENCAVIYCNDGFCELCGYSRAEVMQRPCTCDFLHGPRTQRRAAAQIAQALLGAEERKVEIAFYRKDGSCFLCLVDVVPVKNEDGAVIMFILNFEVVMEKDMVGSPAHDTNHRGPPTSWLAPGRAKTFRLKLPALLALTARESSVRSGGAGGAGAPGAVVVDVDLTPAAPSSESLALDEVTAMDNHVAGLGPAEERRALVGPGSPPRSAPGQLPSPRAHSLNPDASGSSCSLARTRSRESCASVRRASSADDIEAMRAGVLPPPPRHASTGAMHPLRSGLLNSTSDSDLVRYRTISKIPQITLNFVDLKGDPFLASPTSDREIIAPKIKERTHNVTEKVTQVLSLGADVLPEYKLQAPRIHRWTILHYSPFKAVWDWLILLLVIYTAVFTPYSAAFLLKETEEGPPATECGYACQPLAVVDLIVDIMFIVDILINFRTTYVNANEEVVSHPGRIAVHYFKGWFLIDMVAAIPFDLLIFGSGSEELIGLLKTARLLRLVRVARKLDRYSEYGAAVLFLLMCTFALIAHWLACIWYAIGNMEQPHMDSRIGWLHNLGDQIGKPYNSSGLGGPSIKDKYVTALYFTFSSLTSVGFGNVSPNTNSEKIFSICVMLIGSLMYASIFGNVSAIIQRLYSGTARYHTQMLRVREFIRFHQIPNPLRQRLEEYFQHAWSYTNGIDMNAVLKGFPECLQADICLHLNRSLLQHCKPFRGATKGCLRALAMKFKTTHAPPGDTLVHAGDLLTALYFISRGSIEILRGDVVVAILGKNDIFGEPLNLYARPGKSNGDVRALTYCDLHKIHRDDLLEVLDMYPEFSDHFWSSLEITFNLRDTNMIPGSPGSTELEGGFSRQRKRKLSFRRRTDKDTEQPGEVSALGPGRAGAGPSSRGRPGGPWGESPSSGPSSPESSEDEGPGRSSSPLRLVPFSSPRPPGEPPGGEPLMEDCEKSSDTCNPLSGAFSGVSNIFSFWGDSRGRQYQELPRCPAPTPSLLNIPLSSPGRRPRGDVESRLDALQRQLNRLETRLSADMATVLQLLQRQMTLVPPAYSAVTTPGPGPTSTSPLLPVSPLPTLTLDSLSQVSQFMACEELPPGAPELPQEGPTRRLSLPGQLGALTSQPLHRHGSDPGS

The assay concerns the target human ether-à-go-go-related gene (hERG) potassium channel (human, UniProt Q12809). Briefly: primary screen, population patch clamp on CHO cells stably expressing hERG.
In the case of `Clc1ccc(Cl)c(-c2nn3c(COc4ccccc4)nnc3s2)c1`, the “hERG current change (%, negative = inhibition) at 1uM” value is -2.31%.

Turning to `COC(=O)C1=C(C)N(Cc2ccco2)C(=O)N[C@H]1c1ccc(Br)cc1`, the “hERG current change (%, negative = inhibition) at 1uM” value was 15%.

Regarding `O=C(NCCOCCNC(=O)OCc1ccccc1)OCc1ccccc1`, the “hERG current change (%, negative = inhibition) at 1uM” value is listed as 4.83%. For the molecule `CC(=O)c1cccc(NC(=O)N2CCC(c3nnc(SCC(N)=O)n3C)CC2)c1`, the “hERG current change (%, negative = inhibition) at 1uM” value worked out at 12.4%.

In the case of `Cc1onc(-c2ccccc2)c1CNS(=O)(=O)c1ccc(F)cc1F`, the “hERG current change (%, negative = inhibition) at 1uM” value is 5.25%. `Brc1ccc(-c2cn3c(n2)CCc2ccc4cccnc4c2-3)cc1`: the “hERG current change (%, negative = inhibition) at 1uM” value was 10.5%. For `O=C(NCCNCc1cccs1)c1ccccc1F`, the “hERG current change (%, negative = inhibition) at 1uM” value was found to be 4.36%. The value for `CCOC(=O)c1ccc(-n2c(C)nc3c(cnn3-c3ccc(Cl)cc3)c2=O)cc1` was -9.73%; that for `COCCNC(=O)NC12CC3(C)CC(C)(CC(C)(C3)C1)C2` was 12.3%. As for `CCCOc1ccc(C(=O)c2ccccc2C(=O)O)cc1OCCC`, the figure is 9.12%; as for `OCCC1CN(Cc2ccc(-c3ccco3)cc2)CCN1Cc1ccsc1` (stereo not drawn), 2.41%. As for `CCOC(=O)C1=C(COC(=O)c2cccc(Br)c2)NC(=O)NC1C` (stereo not drawn), the figure is 12.4%.

As to `COc1ccc(NC(=O)COc2ccc(S(=O)(=O)N3CCOCC3)cc2C)cc1OC`, the “hERG current change (%, negative = inhibition) at 1uM” value is 14.8%. The value for `COc1ccc(C(=O)O)cc1S(=O)(=O)N(CCc1ccccc1)Cc1ccccc1` was 6.14%; that for `O=C(Nc1ccccc1N1CCN(C(=O)c2ccccc2)CC1)c1ccc2c(c1)OCO2` was -10.6%.

`CN1/C(=C/C=N/n2cnnc2)C(C)(C)c2ccccc21`: the “hERG current change (%, negative = inhibition) at 1uM” value stood at 7.04%. The value for `CCN(CC(=O)Nc1ccc(NC(C)=O)cc1)C(=O)/C=C/c1ccc(C)o1` was 1.55%; that for `COc1ccccc1CCC(=O)N(C)CC(=O)Nc1ccc(Cl)c(C(F)(F)F)c1` was 11.5%; that for `O=[N+]([O-])c1ccc(Oc2ccc(F)cc2)c2ccncc12` was 3.76%. The value for `COC(=O)c1c(NC(=O)CSc2ncn[nH]2)sc(C)c1C` was 11.2%; that for `Nc1[nH]ncc1S(=O)(=O)c1ccccc1` was 10.2%; that for `CC(/C=C1\SC(=S)N(NC(=O)c2ccncc2)C1=O)=C\c1ccccc1` was 16.1%. As for `O=C1NCCCC1C(=O)N/N=C/c1ccc(Cl)cc1` (stereo not drawn), the figure is -0.193%; as for `Cc1ccc(C(C(=O)NCCc2ccccc2)N(C(=O)c2csnn2)C2CC2)o1` (stereo not drawn), -2.18%. Turning to `COc1ccc(CCNC(=O)Cc2cc(OC)c(OC)cc2Br)cc1OC`, the “hERG current change (%, negative = inhibition) at 1uM” value is on record as 5.04%. As for `COC(=O)c1cccc(-n2c(CCC(=O)O)ccc2-c2cccs2)c1`, the figure is 13.3%; as for `CCCCOC(=O)c1ccc(NC(=O)c2c(N)n(C)c(=O)[nH]c2=O)cc1`, 17.4%; as for `Cc1ccccc1NC(=O)CSc1ccc(-c2ccc(-n3cccn3)cc2)nn1`, 9.55%.

In the case of `Cc1ccc(CN(CC(=O)NC(C)(C)C)C(=O)CNC(=O)c2cccs2)cc1`, the “hERG current change (%, negative = inhibition) at 1uM” value amounted to 11.4%. The value for `O=C(CCc1ccccc1)NNC(=O)c1ccccc1Cl` was 15.4%; that for `Nc1nc2c(nc(Br)n2[C@@H]2O[C@@H]3COP(=O)([O-])O[C@H]3[C@H]2O)c(=O)[nH]1.[Na+]` was 3.85%; that for `CCN(CC)c1ccc(/C=N/Nc2ccc(C)cc2)c(O)c1.Cl` was 14.8%. For the molecule `CCOC(=O)C1=C(C)NC2=C(C(=O)C(C(=O)OCC)C(c3ccco3)C2)C1c1ccccn1` (stereo not drawn), the “hERG current change (%, negative = inhibition) at 1uM” value is recorded as 1.39%. As for `COC(=O)c1ccc(CNC(=O)c2ccc(OC)c(S(=O)(=O)NC3CCCC3)c2)cc1`, the figure is 6.45%; as for `CCCCC(NC(=O)COc1cc2c(c3oc(=O)cc(C)c13)CCC(C)(C)O2)C(=O)O` (stereo not drawn), 6.56%. The value for `Cc1cc2c(cc1S(=O)(=O)N(C)c1ccccc1)n(C)c(=O)n2C` was 6.81%. As for `Cc1ccc(S(=O)(=O)N2CCN(c3nc4ccccc4nc3-n3nc(C)cc3C)CC2)cc1`, the figure is 9.31%; as for `COc1ccc(NC(=O)c2c(C)cc(=O)oc2C)c(OC)c1`, 19.4%; as for `CCc1ccc(NC(=O)C2=CC=CN3CCS(=O)(=O)N=C23)cc1`, -4.43%.

For the molecule `CC1CCc2c(sc3ncnc(N4CCOCC4)c23)C1` (stereo not drawn), the “hERG current change (%, negative = inhibition) at 1uM” value was -0.0507%. The value for `CCOC(CCn1c(SCC(=O)Nc2cc(C)on2)nc2ccccc2c1=O)OCC` was 12.9%; that for `COc1ccc(C(=O)NCC(=O)NCc2cc(=O)n(C)c(=O)n2C)cc1` was 17%; that for `COc1ccc(CNC(=O)C2CCC(=O)N2C(C)C)c(OC)c1` (stereo not drawn) was 10.3%. As for `O=C(CCn1c(=O)[nH]c2ccsc2c1=O)N(CCc1ccccc1)Cc1ccccc1`, the figure is -7.33%.

For `CCC(CO)n1cnnc1-c1ccncc1` (stereo not drawn), the “hERG current change (%, negative = inhibition) at 1uM” value amounted to 20.4%.

Regarding `COc1ccc(OC)c(CCNC(=O)C(C)n2nc(C)c3c(C)n(-c4ccc(C)cc4)nc3c2=O)c1` (stereo not drawn), the “hERG current change (%, negative = inhibition) at 1uM” value is -7.89%. The value for `S=C1NC[C@H](Cc2cccc3ccccc23)N1CC1CCCCC1` was 10.6%. Regarding `Cc1nn(-c2ccccc2)nc1CNC(=O)C1CCC1`, the “hERG current change (%, negative = inhibition) at 1uM” value amounted to 7.23%. As for `O=S(=O)(c1cccs1)N1CN(C2CCCCC2)c2nc3ccccc3nc21`, the figure is 0.376%; as for `Cc1ccc(SCc2nnc(N)s2)cc1`, -10.5%. The value for `CC(=O)NCCOC(=O)Nc1ccncc1` was 7.72%; that for `O=C1/C(=C/C=C/c2ccco2)SC(=S)N1NS(=O)(=O)c1ccccc1` was 12.1%; that for `Cc1cc(C(=O)OCC(=O)N2CC(C)OC(C)C2)c(C)n1-c1ccccc1` (stereo not drawn) was 6.27%. As for `COC(=O)C1C(c2ccc(OC)cc2)NC(=O)NC1(O)C(F)(F)Cl` (stereo not drawn), the figure is 7.6%; as for `CC(=O)c1ccc(NC(=O)C2CCCN(S(=O)(=O)c3cccc4nonc34)C2)cc1` (stereo not drawn), 10.9%. As for `c1ccc(-c2noc(CN3CCN(C(c4ccccc4)c4ccccc4)CC3)n2)cc1`, the “hERG current change (%, negative = inhibition) at 1uM” value was 2.9%. As for `CC(=O)NCc1nc2ccccc2n1C(C)C`, the figure is 17.6%; as for `Cc1cc([N+](=O)[O-])nn1CC(=O)NNC(=S)Nc1ccc(Cl)cc1`, 11.6%; as for `CCc1nnc(SCC(=O)Nc2ccccc2Cl)nc1CC`, 8.7%. The value for `CC1CC(C)CN(C(=O)c2ccc(C(=O)c3ccccc3)cc2)C1` (stereo not drawn) was -1.23%; that for `CCC(=O)OCCn1c(=O)c2cc3c(=O)n(CCOC(=O)CC)c(=O)c3cc2c1=O` was -11.5%.

On to `S=C(NCCc1ccccc1)N1CCN(Cc2ccc(Cl)c(Cl)c2)CC1`, for which the “hERG current change (%, negative = inhibition) at 1uM” value was determined as 7.79%. As to `Cc1ccc(N2C(=O)CC(c3c[nH]c4ccccc34)C2=O)cc1` (stereo not drawn), the “hERG current change (%, negative = inhibition) at 1uM” value turned out to be 9.12%. As for `CN1CC=C2C(C#N)=C(N)C(C#N)(C#N)C(CCc3ccccc3)C2C1` (stereo not drawn), the figure is 8.6%; as for `CCOc1c(OC)cc(C2C(C#N)=C(N)Oc3n[nH]c(-c4ccncc4)c32)cc1OC` (stereo not drawn), 1.53%. As for `COc1cc(-c2noc(C)c2C#CC2(N)CCCCC2)cc(OC)c1OC`, the figure is 9.6%; as for `CCOC(=O)c1ccc(NC(=O)c2nc[nH]c2C(=O)N[C@@H](C)C(=O)OC(C)(C)C)cc1`, 17.5%. Turning to `O=C(Nc1cccc(C(=O)NC2CC2)c1)c1ccc(Cl)c(S(=O)(=O)N2CCOCC2)c1`, the “hERG current change (%, negative = inhibition) at 1uM” value is given as 6.55%. As for `Cc1nn(CCCC(=O)Nc2ccc(Br)cc2F)c(C)c1[N+](=O)[O-]`, the figure is 3.02%; as for `O=C1NC2(CCCCC2)N=C1c1ccccc1`, 12.6%; as for `COc1ccc(NS(=O)(=O)c2nnc(NC(=O)c3ccccc3F)s2)cc1`, 8.19%. As for `COC(=O)c1ccc(NC(=O)CSc2nc3cccnc3n2C)cc1`, the figure is 19.8%.

As to `COc1cc2nc(N(CCN(C)C)C(=O)c3ccc(S(=O)(=O)N(C)CC4CCCO4)cc3)sc2cc1OC.Cl` (stereo not drawn), the “hERG current change (%, negative = inhibition) at 1uM” value turned out to be 9.05%. `O=C(COc1cccc2ccccc12)N1c2ccccc2CCc2ccccc21`: the “hERG current change (%, negative = inhibition) at 1uM” value worked out at 0.892%. As for `CC(=O)c1ccc(NC(=O)c2noc(C)c2[N+](=O)[O-])cc1`, the figure is 14.8%; as for `Cc1onc(-c2c(Cl)cccc2Cl)c1C(=O)N1CCN(c2ccccc2)CC1`, 8.86%.

Take `O=C(CCS(=O)(=O)c1ccccc1)Nc1cccc2c1C(=O)NC2=O`: the “hERG current change (%, negative = inhibition) at 1uM” value turned out to be 9.71%. Take `O=C(CSc1ccccn1)NCc1ccc2c(c1)OCO2`: the “hERG current change (%, negative = inhibition) at 1uM” value came out at 1.19%. The value for `CCn1c(SCC(=O)NC2CC2)nnc1C(C)Oc1ccccc1` (stereo not drawn) was 1.29%. The value for `Cc1ccc(CCNC(=O)C2CCN(S(=O)(=O)c3ccc4c(c3)NC(=O)CO4)CC2)cc1` was 8.71%. As for `CC(C)C(=O)NCc1cc(-c2ccc(Cl)cc2)no1`, the figure is 9.15%. `COc1ccc(NC(=O)NNC(=O)COc2ccc3cc(Br)ccc3c2)cc1`: the “hERG current change (%, negative = inhibition) at 1uM” value is 16.4%. As for `O=C(O)c1ccc(N2CCCCCC2)c(N2C(=O)c3ccccc3C2=O)c1`, the figure is 0.27%; as for `CCN(CC)S(=O)(=O)c1cc(C(=O)N(C)CC(=O)Nc2ccc(Cl)cc2)ccc1Cl`, -1.15%; as for `O=C(c1cccc(S(=O)(=O)NCCOc2ccccc2)c1)N1CCN(c2ncccn2)CC1`, -9.35%. The value for `CCSc1nnc(NC(=O)Cn2cnc3ccccc3c2=O)s1` was 10%. As for `O=C(CN1C(=O)NC2(CCCCC2)C1=O)Nc1ccc2c(c1)OCCCO2`, the figure is 7.13%.

(Values after paper PMC4336329 (PLoS ONE, 2015).)
